Laboratory results taken from publication PMC4336329 (PLoS ONE, 2015).
Hit rate of the full screen: of about 310,000 compounds, about 14,000 (4.5%) showed an effect of 50% or more. The effect is printed as a negative number. Some of the results follow.

biological target: human ether-à-go-go-related gene (hERG) potassium channel (human, UniProt Q12809); assay: primary screen, population patch clamp on CHO cells stably expressing hERG
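Note: peak tail current of the secondary pulse compared with the same well before compound.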

human ether-à-go-go-related gene (hERG) potassium channel, sequence (Q12809 whole entry, looked up): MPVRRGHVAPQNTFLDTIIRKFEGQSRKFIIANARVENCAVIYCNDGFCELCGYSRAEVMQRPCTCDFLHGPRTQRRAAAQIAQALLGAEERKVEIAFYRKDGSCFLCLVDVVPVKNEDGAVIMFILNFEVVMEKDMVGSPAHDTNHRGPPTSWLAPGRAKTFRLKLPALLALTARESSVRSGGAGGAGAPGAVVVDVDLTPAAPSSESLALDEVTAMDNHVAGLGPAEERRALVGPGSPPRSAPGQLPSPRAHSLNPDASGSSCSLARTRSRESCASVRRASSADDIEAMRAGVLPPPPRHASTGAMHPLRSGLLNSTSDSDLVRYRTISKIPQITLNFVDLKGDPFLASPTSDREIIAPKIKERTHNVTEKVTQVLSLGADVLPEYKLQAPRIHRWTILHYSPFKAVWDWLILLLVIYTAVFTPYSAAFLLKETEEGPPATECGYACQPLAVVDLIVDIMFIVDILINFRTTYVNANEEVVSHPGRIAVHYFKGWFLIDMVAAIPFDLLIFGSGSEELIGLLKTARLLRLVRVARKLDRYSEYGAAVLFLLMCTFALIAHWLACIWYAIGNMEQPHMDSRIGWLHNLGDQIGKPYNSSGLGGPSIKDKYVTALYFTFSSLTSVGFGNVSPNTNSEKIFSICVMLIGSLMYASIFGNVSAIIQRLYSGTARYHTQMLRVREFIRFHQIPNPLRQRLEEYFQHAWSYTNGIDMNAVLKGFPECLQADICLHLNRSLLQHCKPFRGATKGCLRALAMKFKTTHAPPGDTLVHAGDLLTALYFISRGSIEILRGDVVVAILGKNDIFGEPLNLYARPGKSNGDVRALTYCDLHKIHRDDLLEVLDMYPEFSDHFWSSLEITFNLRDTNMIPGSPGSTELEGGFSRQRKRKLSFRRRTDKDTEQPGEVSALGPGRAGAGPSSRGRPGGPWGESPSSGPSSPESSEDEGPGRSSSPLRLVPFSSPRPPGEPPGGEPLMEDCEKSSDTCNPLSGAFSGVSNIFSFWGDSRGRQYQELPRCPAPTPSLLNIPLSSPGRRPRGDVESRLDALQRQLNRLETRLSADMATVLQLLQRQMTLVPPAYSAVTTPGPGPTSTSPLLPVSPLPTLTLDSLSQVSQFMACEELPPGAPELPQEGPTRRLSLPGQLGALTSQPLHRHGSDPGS

| Structure (SMILES) | hERG current change (%, negative = inhibition) at 10uM [%] |
| --- | --- |
| Cc1cc(C)c(OCCCCN2CCNCC2)c(C)c1.O=C(O)C(=O)O | 9.44 |
| O=C(Nc1ccc(N2CCCC(O)C2)cc1)c1snc2c(=O)[nH]cnc12 (stereo not shown) | 12.3 |
| C=CCn1cccc(C(=O)Nc2cc(OC)c(OC)c(OC)c2)c1=O | 3.71 |
| Cc1ccc(NS(=O)(=O)c2ccc(OCC(=O)NCc3ccco3)cc2)cc1 | -20.7 |
| CC(=NCC1CCCO1)c1c(O)n(C2CCCCC2)c(=O)[nH]c1=O (stereo not shown) | -9.77 |
| COc1ccc(Br)cc1CNC(=O)Cc1c(C(=O)O)[nH]c2ccc(Cl)cc12 | 27.2 |
| Cc1ccccc1Cn1c2ccccc2c2cnn(CC(=O)NCCCN3CCOCC3)c(=O)c21 | -18.6 |
| CC(C)CCNC(=O)C(NS(=O)(=O)c1ccc2c(c1)c(=O)n(C)c(=O)n2C)c1ccccc1 (stereo not shown) | 13.2 |
| O=C(NC1CCCC1)C(=O)N(Cc1cccnc1)C(C(=O)NCc1ccco1)c1ccccc1F (stereo not shown) | -3.41 |
| Cc1sc2nc(SCC(N)=O)n(-c3ccccc3)c(=O)c2c1C | 2.15 |
| CC(C)C(=O)Nc1c(-c2ccccc2Cl)c(=O)c2ccccc2n1C | 11.8 |
| Cc1ccccc1NC(=S)NC(=O)C1CCCCC1 | 12.2 |
| O=C(Cc1ccc(S(=O)(=O)N2CCOCC2)s1)Nc1ccc2c(c1)CCC2 | -15.7 |
| CC(=O)Nc1ccc2nc(SCC(=O)NCCOc3ccccc3)sc2c1 | -16.7 |
| CCNc1nc(NCC)n2c(SCC(=O)NCC3CCCCC3)nnc2n1 | 10.9 |
| COc1ccccc1-c1cc(C(=O)N2CCN(c3ccc(F)cc3)CC2)no1 | 0.108 |
| O=C(CCCN1C(=O)/C(=C/c2cccs2)SC1=S)Nc1cccnc1 | 13.2 |
| COc1cccc(OCC(=O)O)c1 | 4.45 |
| COc1ccccc1OCC(=O)NC1CCCc2ccccc21 (stereo not shown) | 15.2 |
| COc1ccc(-n2ccnc2SCC(=O)NCc2ccc3c(c2)OCO3)cc1 | -7.81 |
| Brc1ccc(OCCCCCN2CCOCC2)cc1.O=C(O)C(=O)O | -63.8 |
| COc1ccc(Br)cc1CN1CCN(C(=O)c2ccc(OC)c(OC)c2)CC1.O=C(O)C(=O)O | -38.1 |

| Structure (SMILES) | hERG current change (%, negative = inhibition) at 10uM [%] |
| --- | --- |
| O=C(NCCc1ccc(Cl)cc1)c1n[nH]c2ccccc12 | 16.7 |
| NC(=O)c1ccc(N2CCN(c3ccccc3O)CC2)c([N+](=O)[O-])c1 | -30.2 |
| CN(C)S(=O)(=O)c1ccc(N2CCCC2)c(C(=O)Nc2ccc(F)cc2F)c1 | -33.2 |
| CN(CC(=O)NCC1CCCCC1)CC(=O)Nc1ccccc1Br | -21.2 |
| O=C(Nc1c2c(nn1-c1cccc(Cl)c1)CS(=O)(=O)C2)c1cccs1 | -18.8 |
| CNNC(=S)Nc1ccc(Cl)cc1 | -15.1 |
| CC(C)(C)NS(=O)(=O)c1ccc(NC(=O)c2cc(-c3ccccc3)nc3ccccc23)cc1 | -5.14 |
| Cc1c(C(=O)NCCC2=CCCCC2)cccc1[N+](=O)[O-] | -1.5 |
| CCN(CC)S(=O)(=O)c1ccc(N2CCOCC2)c(NC(=O)c2cccc3c(=O)c(C)c(-c4ccccc4)oc23)c1 | -55 |
| Cc1ccc2c(c1)C(c1ccccc1)N(C(=O)c1ccccc1)CC(=O)N2 (stereo not shown) | -7.17 |
| COc1ccc(C2SCC(=O)Nc3c2c(C)nn3C2CCOC(C)(C)C2)cc1OC (stereo not shown) | 0.748 |
| O=C1CC(c2ccc(Cl)cc2)c2c(O)cc(O)cc2O1 (stereo not shown) | 19.9 |
| COc1ccc(OC)c(NC(=O)c2cc3n(n2)C(C(F)(F)F)CC(c2ccc4c(c2)OCO4)N3)c1 (stereo not shown) | 0.971 |
| NC(=O)c1ccc[n+](CC(=O)NCc2ccc(Cl)cc2)c1.[Cl-] | 8.9 |
| CN(Cc1ccccc1Br)C(=O)CN1C(=O)NC2(CCCCCC2)C1=O | -11.1 |
| CC(=O)c1ccc2c(c1)OCO2 | 16.1 |
| CCN(CC)Cc1c(C(=O)N/N=C/c2cccs2)nnn1-c1nonc1N | -47.4 |
| CN(C)C(CNC(=O)c1ccccc1OCc1ccc(Cl)cc1)c1ccco1 (stereo not shown) | -60.3 |
| Cc1cc(OCCCN2CCN(Cc3ccccc3)CC2)ccc1[N+](=O)[O-].O=C(O)C(=O)O | -71.5 |
| Cc1cc(C)c(NC(=O)CN2C(=O)NC(Cc3ccccc3)C2=O)c(C)c1 (stereo not shown) | 9.29 |
| CCOC(=O)Cn1nc(C)n(-c2ccccc2)c1=O | -6.25 |
